Experimental data: the RNAGym collection of RNA variant scans (doi:10.7554/elife.90254)
Read counts are not given, so values of variants with three or more changes are uncertain.

B1: LINE1-mini (parent)
chain: GGCAGAGCUCAACACAGCGUGGCAAAGUGGCUGUGGCUAGACUGCC

Variants of: B1
Assay: self-cleavage, relative activity (ratio to wild type); higher = more cleavage; in vitro, sequencing; the parent is a self-cleaving ribozyme

Row | Variant | self-cleavage
1 | A14G G19C G27A C37U | 0.01
2 | A14G G19C U38C | 0.06
3 | C15A G40A C42G | 0.06
4 | A14C C23G U28G U32A C37G | 0
5 | A14G G22U C46G | 0.69
6 | A14C C15U A26U | 0.28
7 | C15A A26U G33A | 0.05
8 | A14G A16G C23A A24G A26U C31G | 0.01
9 | A14U G27U U28G C31U | 0.02
10 | A14G G17A G27A C42U C46G | 0.11
11 | A14U C18U A26C G30A | 0.06
12 | C15A G19U U34G | 0.01
13 | A14G C18A G29A C42G | 0.04
14 | A14G U20C A26U | 1.2
15 | A14C G21U C23G C37U | 0.01
16 | C15A A24U G29U | 0.02
17 | A14C C37G C45A | 0.04
18 | A14U U20A G22C A24C | 0.04
19 | A14C C15G U28A G30A | 0.01
20 | C15A G17C G27U U34A A41C | 0.03
21 | C15A U28C G33A | 0.25
22 | A14C G22U G29U | 0.06
23 | A14U C31G U34A C45U | 0.03
24 | A14U U20C G21C U28A C42U | 0.01

Row | Variant | self-cleavage
25 | A14G G21U C46A | 0.78
26 | A14U A24C G29A C31U A41U | 0.61
27 | C15A A16U G36C A39G U43A | 0.06
28 | A14C G30U U38C C45G | 0.01
29 | C13U U28A A41U | 0.01
30 | C15A C31A G36A | 0.06
31 | C15A C31A G36C | 0.06
32 | A14C C15G G17C G19A U43C C45G | 0.28
33 | A14G A26U G27U | 0.15
34 | A14C G22U A41G | 0.03
35 | A14G G17A C46A | 0.04
36 | A14G C18G G21U U32C | 0.04
37 | A14G G36A A39U | 0.07
38 | A14U G27U C31U G40C | 0.09
39 | A14U G22C U34A | 0.2
40 | A14U C18U U32C G36U | 0.09
41 | A14G U32G G36A | 0.01
42 | A14U A24G A26G G36U | 0.02
43 | C15A U20A C31G C45U | 0.06
44 | A14U A39U C42A | 0.14
45 | A14U G19U C37A G40C C46U | 0
46 | C15A G35C U43A | 0.03
47 | C15A G17A C23A G29A | 0.01
48 | A14U G21A A25U G40A | 0.03

Row | Variant | self-cleavage
49 | C15A G27C U34G G35A C42G | 0
50 | A14C G17U G30U U38G G40A G44U | 0.03
51 | A14G G29A G30A U32C | 0.04
52 | A14G G17U G21U G22C G35C | 0.02
53 | C15A C23A C31U G33U G36C | 0.02
54 | A14C C15A A24U | 0.15
55 | C15A C31G G33C | 0.01
56 | A14G U28C A39U | 0.02
57 | A14C A41U U43G | 0.17
58 | A14C C18G C46A | 0.11
59 | C13U U34G C37A G40C C42U | 0.06
60 | A14U G17U U32C A39C | 0.08
61 | A14C C18U U28A | 0.11
62 | A14G C15G G22A G36U U38C | 0.01
63 | A14U C42U C46A | 0.04
64 | A14U U32G G44C | 0.05
65 | A14C C18U U43A C45U | 0.03
66 | A14U G21C U28C | 0.4
67 | A14U U20C G30A G36A | 0.06
68 | A14C A25G G30A G36U | 0.05
69 | A14C C31G C42U | 0.03
70 | C15A C23A G36U U43G | 0
71 | C15A G30C G33A | 0.05
72 | A14U A24U U38G C45G | 0.03

Row | Variant | self-cleavage
73 | A14U C23G C37U C45A C46U | 0.06
74 | A14U A26C G29A U38A | 0.34
75 | C13U U28G U34G | 0.01
76 | A14U G17C G27U G29C | 0.05
77 | A14U U20A G22C G33A C46A | 0.04
78 | A14U C31A C45U | 0.04
79 | A14U G22C A26C G30C C37G | 0.13
80 | C15A C18G G40U A41C | 0.1
81 | A14U G19C U32A G35A G36A A41G G44U | 0.03
82 | C15A G30U C42U | 0.02
83 | A14C G29U U43A C45A C46U | 0.03
84 | A14U G22C G44A | 0.04
85 | A14C G22U G33C | 0.07
86 | C15A C31U G36U | 0.01
87 | C15A G22U G35U | 0.05
88 | A14U G35C G40C A41C | 0.02
89 | A14U G17A C18A G44C | 0.05
90 | A14G A25G G36U | 0.09
91 | A14U C23A G33U | 0.08
92 | C15A G17U G27U | 0.22
93 | A14U C18G G35A | 0.03
94 | A14C G29A A39C C42U | 0.04
95 | C13U G44A C46G | 0.11
96 | A14U A26G C45G | 0.07

Row | Variant | self-cleavage
97 | A14U C23U G36C | 0.05
98 | A14G U28C G40C | 0.04
99 | A14U G33U C37A | 0.01
100 | A14G G17U G22C C23A C37U A41G | 0.05
101 | C15A G40C U43G | 0.03
102 | A14C G29C U38A | 0.04
103 | C15A C18A A25C C37G | 0.02
104 | A14G U34C C45U | 0.58
105 | A14C A26G G44A | 0.09
106 | A14U G21U A26C C37A | 0.26
107 | C15A A24C C37G | 0
108 | C15A C23G G33A | 0.07
109 | C15A C23A G27A U32C | 0.04
110 | C13U U38C C42A | 0.06
111 | A14U G35U G36U | 0.13
112 | C15A A26U G27U | 0.02
113 | A14G G29U G36U | 0.09
114 | A14C G30C C31G G36C | 0.1
115 | A14G C15A C45U | 0.05
116 | A14C G21A C31G C42G | 0.01
117 | C15A G19U G22U U32G A39C | 0.02
118 | A14U A26C G36A | 0.03
119 | A14G A16U C37A | 0.03
120 | A14U G21C C23U U28A C37U | 0.03

Row | Variant | self-cleavage
121 | C13U U20A G21A | 0.11
122 | A14U C15U G17C U38C | 0.03
123 | A14G G27C G35A | 0.08
124 | A14G G33C A39U | 0.05
125 | A14G U20A C31U | 0.03
126 | C15A C18A G27U C37G C46U | 0.04
127 | C15A G35C C37A | 0.24
128 | A14G A26U C31U | 0.03
129 | A14G C15U C31G G36U A39U | 0.01
130 | A14C G27C G36C C42G | 0.04
131 | C13U G33C G40A G44U | 0.05
132 | C15A G27A G33C | 0.04
133 | C15A G22U C46U | 0.1
134 | C15A G22A A25G U32A | 0.04
135 | A14U G21U U32G U34C | 0.04
136 | C15A A26C G40U | 0.01
137 | A14C G21A U28G G35C G36U | 0.08
138 | A14U G29A G35A | 0.08
139 | C15A G19A C46U | 0.04
140 | C15A G22U A41C | 0.05
141 | A14U G17A G36C G40U | 0.07
142 | A14G C15A C23U G27U U32C | 0.05
143 | A14U U20G C23U C37U U38A C45A | 0.2
144 | A14C U20A G35C U43G | 0.23

Row | Variant | self-cleavage
145 | A14G C15G C18A G22U G27C | 0.01
146 | C15A U20G A24U | 0.04
147 | A14U G27U G33U U38A G44C C46A | 0.06
148 | A14U G19C U20G U34C | 0.23
149 | A14C G19C A41U C42U | 0.01
150 | A14C A39G C45A | 0.03
151 | C13U G40C C45U | 0.02
152 | A14U U32C C45A | 0.05
153 | A14U G33C C45G | 0.01
154 | A14U C18G U34G G40A | 0.03
155 | A14C A24C U28G G35A | 0.02
156 | A14U C37A U43A | 0.04
157 | A14C G36U A39C | 0.02
158 | A14U G29A C46A | 0.6
159 | A14C G17A G36C | 0.01
160 | C15A G27C G29C A39C | 0.18
161 | C13U U32A G35C | 0.06
162 | A14U C15A G29A | 0.03
163 | C13U U20G A26U G35U | 0.1
164 | A14G G27A G30U | 0.13
165 | A14U C18A G35U | 0.06
166 | A14C C18G G21C G33C | 0.02
167 | C13U U34G G40C | 0.15
